Results as given in the RNAGym collection of RNA variant scans (doi:10.7554/elife.90254).
The source gives no read counts; variants with many changes may rest on few reads.

B1: LINE1-mini (parent)
chain: GGCAGAGCUCAACACAGCGUGGCAAAGUGGCUGUGGCUAGACUGCC

Variants of: B1
Assay: self-cleavage, relative activity (ratio to wild type); higher = more cleavage; in vitro, sequencing; the parent is a self-cleaving ribozyme

| Variant | self-cleavage |
| --- | --- |
| UGCAGAGCGCAACACAGCGCGGCAUAGUGGCUGUGGCUAGACUGCC [G1U U9G U20C A25U] | 0.01 |
| GACGGAGCUCAACACGGCGUGGCAAAGUGUCUGUGGCUAGGCUGCC [G2A A4G A16G G30U A41G] | 0.04 |
| GACGGAGCUCAAUACCGCGUGGAAAAGUGGCUGUGACUAGACUGCC [G2A A4G C13U A16C C23A G36A] | 2.08 |
| GACAGGGCUCAACUCAGCGUGGCAAAGUGGCUGUGGCUAGACUGCA [G2A A6G A14U C46A] | 0.01 |
| UGCAGAGCGCAACACACUGUGGCAAAGUGGCUGUGGCUACACUGCC [G1U U9G G17C C18U G40C] | 0.03 |
| UGCAGAGCGCAACACAGCGGGGCAAAGUGGCUGUGGCUAGAAUGCC [G1U U9G U20G C42A] | 0.03 |
| UGCAGAGCCCAACACAGCGUGGCAAAGUGGCUGUGGCAGGACUGCC [G1U U9C U38A A39G] | 0 |
| UGCAGAGCUCAACACAGCGUGGCAAAUUGGCUGUGGCUAGACCGCC [G1U G27U U43C] | 0.01 |
| GACAGAGCUCAUCACUGAGUGGCAAAGUGGCUGUUGCUAGACUGCC [G2A A12U A16U C18A G35U] | 0.17 |
| UGCAGAGCUCAACACAGCGUGGCAAAGUGGCUGUGACUAGGCUGCC [G1U G36A A41G] | 0.07 |
| GACCGAGCUCAACGCUGCUUGGCAAAGUGGCUGUGGCUAGACAGCC [G2A A4C A14G A16U G19U U43A] | 0.09 |
| UGCAGAGCUCAACACAGCGAGGCAAAGUGUCUGUGGCUAGACUGCC [G1U U20A G30U] | 0.93 |
| UGCAGAGCUCAACACAGCGUGGCAAACUCGCUGUUGCUAGACUGCC [G1U G27C G29C G35U] | 0 |
| GACAGUGCUCAACACAGCGUUGCAAGGUGGCCGUGGCUAGACUGCC [G2A A6U G21U A26G U32C] | 0.17 |
| UGCAGAGCUCAACACAGCGAGGAGAAGUGGCUCUGGCUUGACUGGC [G1U U20A C23A A24G G33C A39U C45G] | 0.04 |
| UGCAGAGCUCAACACAGCGUGGCAAAGGGGCUCUGGCUAGACUGCC [G1U U28G G33C] | 0.01 |
| UGCAGAGCUCAACACAGCGUGGCAAAGUGGCUGGGGCUAAACUGCC [G1U U34G G40A] | 0.02 |
| GACAGAGCUCUACACAGCGCGGCAAAGUGGCUGUGGCUAGACUGCC [G2A A11U U20C] | 0.29 |
| GACAGAGCUCAACCUAGCGUGGCAAAGUGGCUGUGUCUAGACUGCC [G2A A14C C15U G36U] | 0.03 |

| Variant | self-cleavage |
| --- | --- |
| GACAGAGCUCAUCACAGCGUGGCAAAGUGGCUGUGGCUAGGCUGCC [G2A A12U A41G] | 0.08 |
| GACAGAGCUCGACACAGCGUGUCAAAGCGGCUGUGGGUAGACUGCU [G2A A11G G22U U28C C37G C46U] | 0 |
| GACAGAGCUCGACACAGCGUGGCAAAGGGGCUGUGGGUAGACUGCC [G2A A11G U28G C37G] | 0 |
| UGCAGAGCUCAACACAGCGCGGCAAAGUGGCUGUGGUUAGACUGCC [G1U U20C C37U] | 0 |
| GACAGAGCUCAACUCAGCGAGGCAAAGUGGCUGUGGCUAGACAGCC [G2A A14U U20A U43A] | 0.13 |
| UGCAGAGCUCAACACAGCGUGGCAAAGCGGCUGUGUCUAGACUGGC [G1U U28C G36U C45G] | 0.08 |
| GACAGUGCUCAACACAGCGUGGGGAAGUGGCUGUAGCUAGACUGCA [G2A A6U C23G A24G G35A C46A] | 0.02 |
| UGCAGAGCUCAACACAGCGCGGCGAAUUGGAUGUGGCAAGACUGCC [G1U U20C A24G G27U C31A U38A] | 0.03 |
| GACAGUGCUCAACACAGCGUGGCAAAGUGCCUGGGGAUAGACUGCC [G2A A6U G30C U34G C37A] | 0.04 |
| GACAGAGCUCAACCUCGCGUGGCAAAGUGGCUGUGGCUAGACUGCA [G2A A14C C15U A16C C46A] | 0.27 |
| GACAGAGCUCUACUCAGCGUGGCAAAGUGGUUGUGGCUAAACUGCC [G2A A11U A14U C31U G40A] | 0.01 |
| UGCAGAGCUCAACACAGCGUGGCAAAGUUACUGUGGCUAGACUGCC [G1U G29U G30A] | 0.06 |
| GACAGAGCUCAACUCAGCAUGGCAAAGUGGCUGUGGCUAGACUGCC [G2A A14U G19A] | 0.1 |
| GACAGAGCUCCACAUUACGUGGCAAAGUGGCUGUGGCUAGACUGCC [G2A A11C C15U A16U G17A] | 0.03 |
| GACAGGGAUCAACACCGCGUGGCAAAGUUGCUGUGGCUAGACUGCA [G2A A6G C8A A16C G29U C46A] | 0.13 |
| GACAGAGCUCACCACAGCGUGGCAAAGUGGCUGUGGCUUGACUGCC [G2A A12C A39U] | 0.03 |
| UGCAGAGCUCAACACAGCGUGGCAAAGUGUUUGUGGCUAGACUGCA [G1U G30U C31U C46A] | 0.04 |
| GACAGAGCUCGAUACAGCGUGGCAAAGUGUCUGCGGCUAGACUGCC [G2A A11G C13U G30U U34C] | 0.06 |
| GACAGAGCUCAGCACAGCGUGGCAAAUUGGCUCUGGCUAGAUUUCC [G2A A12G G27U G33C C42U G44U] | 0.08 |

| Variant | self-cleavage |
| --- | --- |
| UGCAGAGCUCAACACAGCGUGGCAAAACGGCUGUGGCUUGACUGAC [G1U G27A U28C A39U C45A] | 0.13 |
| GACCGAGUUCAAAACAAUGUGGCAAAGUGGCUGUGGCUAGACUGCC [G2A A4C C8U C13A G17A C18U] | 0.15 |
| GACAGAGCUCAGCACAGCGUGGCAAAGUGGCAGCGGCUAGACUGCA [G2A A12G U32A U34C C46A] | 0.03 |
| UGCAGAGCUCAACACAGCGUGGCAAAGUGGCUGGGGCUAGACUCCC [G1U U34G G44C] | 0.07 |
| UGCAGAGCUCAACACAGCGUGGCAAAGUGGCCGUGGCUAGACUGUC [G1U U32C C45U] | 0.01 |
| GACAGCGCUCAACACAGCGCGGCAAAUUGGCUAGGGCUAGACUGCC [G2A A6C U20C G27U G33A U34G] | 0.05 |
| GACAGAGCUCACCAGAUCGUGGCAAAGUGGCUGUGGCUUGACUGCC [G2A A12C C15G G17U A39U] | 0.06 |
| GACAGAGCUCAACUCAGCGUGGCAAAGUGCCUGUCGCUAGACUGAC [G2A A14U G30C G35C C45A] | 0.43 |
| UGCAGAGCUCAACACAGCGUGUCAAAGUGGCUGUGGCAAGACUGCC [G1U G22U U38A] | 0.15 |
| GACCGAGCUCAACGCAGCGUGGCAAAGUGGCUGUGGCUAGACUGCC [G2A A4C A14G] | 0.25 |
| UGCAGAGCCCAACACAGCGUGGCAAAGUGGCUGUGGCUAGACUCCC [G1U U9C G44C] | 0.02 |
| GACAGAGCUCAGCACAGCGUGGCAAAGUUGCUGUGGCAAAACUGCC [G2A A12G G29U U38A G40A] | 0.03 |
| UGCAGAGCUCAACACAGCGUCACAAAGUGGCAGUGGCUAGACUGCA [G1U G21C G22A U32A C46A] | 0.35 |
| GACAGAGCUCACCACAGCGUUGCAAAGUGGCUGUGGCUAGACUGCC [G2A A12C G21U] | 0.04 |
| UGCAGAGCUCAACACAGCGUCGCAAAGUCGCUGUGGCUAGAAUGCC [G1U G21C G29C C42A] | 0.03 |
| GACAGAGCUCGACACAGCGUGGCAAAGUGGCUGUGGCUAGAAUGCA [G2A A11G C42A C46A] | 0.04 |
| GACGGAGCUCAACACAGCGUGACAAAGUGGCUGGGGCUAGACUGCC [G2A A4G G22A U34G] | 0.19 |
| GACAGAGCUCAACGCAGCGUGGUAAAGUGGCUGUGGCUAGACUGCC [G2A A14G C23U] | 0.71 |
